Experimental findings from paper PMC12681845 are described below.

Sequences of proteins named here, by UniProt entry; tags and fusion partners are left off.
UniProt Q8N6T7: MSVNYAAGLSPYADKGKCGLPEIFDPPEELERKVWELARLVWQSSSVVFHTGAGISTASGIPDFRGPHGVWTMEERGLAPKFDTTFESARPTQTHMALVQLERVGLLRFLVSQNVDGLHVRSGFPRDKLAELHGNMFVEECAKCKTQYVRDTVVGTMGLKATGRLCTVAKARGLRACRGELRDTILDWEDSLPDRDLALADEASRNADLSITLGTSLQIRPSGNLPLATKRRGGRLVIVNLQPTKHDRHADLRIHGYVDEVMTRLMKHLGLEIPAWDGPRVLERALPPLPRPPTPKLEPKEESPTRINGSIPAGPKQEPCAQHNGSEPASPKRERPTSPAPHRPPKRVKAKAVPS

Substitutions are numbered along the chain they refer to. Numbers in names are those of the source. No constants are given. Whether binding was seen depends on the method and setting. In cells and extracts the contact can be indirect. Some entries that bind do so weakly or less than the wild type. For part of these data: Sequences can lack the tags named with a protein.

The labels stand for the following.
B1: Hepatocyte nuclear factor 3-alpha (protein, UniProt P55317 1-472)
chain: MLGTVKMEGHETSDWNSYYADTQEAYSSVPVSNMNSGLGSMNSMNTYMTMNTMTTSGNMTPASFNMSYANPGLGAGLSPGAVAGMPGGSAGAMNSMTAAGVTAMGTALSPSGMGAMGAQQAASMNGLGPYAAAMNPCMSPMAYAPSNLGRSRAGGGGDAKTFKRSYPHAKPPYSYISLITMAIQQAPSKMLTLSEIYQWIMDLFPYYRQNQQRWQNSIRHSLSFNDCFVKVARSPDKPGKGSYWTLHPDSGNMFENGCYLRRQKRFKCEKQPGAGGGGGSGSGGSGAKGGPESRKDPSGASNPSADSPLHRGVHGKTGQLEGAPAPGPAASPQTLDHSGATATGGASELKTPASSTAPPISSGPGALASVPASHPAHGLAPHESQLHLKGDPHYSFNHPFSINNLMSSSEQQHKLDFKAYEQALQYSPYGSTLPASLPLGSASVTTRSPIEPSALEPAYYQGVYSRPVLNTS
B2: Transcription factor A, mitochondrial (protein, UniProt Q00059 43-246)
chain: SSVLASCPKKPVSSYLRFSKEQLPIFKAQNPDAKTTELIRRIAQRWRELPDSKKKIYQDAYRAEWQVYKEEISRFKEQLTPSQIMSLEKEIMDKHLKRKAMTKKKELTLLGKPKRPRSAYNVYVAERFQEAKGDSPQEKLKTVKENWKNLSDSEKELYIQHAKEDETRYHNEMKSWEEQMIEVGRKDLLRRTIKKQRKYGAEEC
B3: Myc-His-FoxA1^K267R (protein, UniProt P55317 1-472)
chain: B1 chain with K267R
B4: Myc-His-FoxA1^K267Q (protein, UniProt P55317 1-472)
chain: B1 chain with K267Q
B5: His-mCherry-TFAM^K76Q (protein, UniProt Q00059 43-246)
chain: B2 chain with K34Q
B6: His-mCherry-TFAM^K154Q (protein, UniProt Q00059 43-246)
chain: B2 chain with K112Q
B7: His-mCherry-TFAM^K154R (protein, UniProt Q00059 43-246)
chain: B2 chain with K112R
B8: His-mCherry-TFAM^K76R (protein, UniProt Q00059 43-246)
chain: B2 chain with K34R

For the first experiment, the target named is NAD-dependent protein deacylase sirtuin-6 (human (endogenous in HCT116)) (UniProt Q8N6T7). The experiment in a line: co-IP; HCT116 cell lysates, endogenous proteins; precleared with Protein A/G Agarose and rabbit IgG, primary antibody or control IgG overnight, SDS-PAGE and blot.
For the molecule B1, the binding entry is listed as “binds”. As for B2, the binding entry is recorded as “binds”.

Another experiment shares this target. The experiment in a line: co-IP; HCT116 cells; cytosolic, mitochondrial and nuclear fractions separated before the Co-IP; interaction reported in the mitochondrial fraction.
With B2, the binding result is “binds”.

The target of the next experiment is SIRT6 in 293T cells (human) (UniProt Q8N6T7). The experiment in a line: co-IP; 293T cells transfected with the FoxA1 or TFAM point mutants; pull-down and reverse pull-down (anti-SIRT6 or anti-His antibodies for the TFAM mutants).
Consider B3, for which the binding entry is “no binding”. Turning to B4, the binding entry was “binds”. Same read-out and setting: as for B5, the entry is “binds”. In the case of B6, the binding result is “binds”. Still for that read-out and setting: as for B7, the entry is “no binding”; as for B8, “binds”.
